Consider 44 sequences from the supplement of paper PMC11417369.

Some of the results follow.

For this experiment, the system named is PfSIP2 AP2 domain 1 (GST-tagged). Put plainly: gcPBM binding intensity (ln(normalized median fluorescence intensity)); higher = stronger DNA binding. The method in brief:
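The binding buffer was 1× PBS containing 1% milk, 0.2 mg/ml BSA, 0.5% salmon testes DNA and 0.03% Triton X-100. In it, GST-tagged P. falciparum DNA-binding domains expressed in E. coli were applied for 1 h to an Agilent 4 × 180k array of primer-extended double-stranded 36-bp intergenic genomic probes plus negative controls. Binding intensity, read with Alexa488 anti-GST antibody and a 488 nm scan, is the highest Masliner-normalised natural-log median intensity across replicate spots of either probe orientation.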
As for TTTTGTTATTTTTCAGTGCAATATGATAATAATATA, the “gcPBM binding intensity (ln)” value was determined as 7.72.

For “TCTTTTTAACAAAAAAAAAAAAAAAAAAAAAAATTA [CACACA_negctrl_site1637]”, the “gcPBM binding intensity (ln)” value came to 6.92.

Take “AGAATTTTATTATATTGTACTTTTTATAAACCTTGT [XGTACX_site7495]”: the “gcPBM binding intensity (ln)” value was determined as 6.86.

As for “TACATTTATACTACTGCATTCAAAAAAAATAAAAAA [TGCATGCA_negctrl_site157]”, the “gcPBM binding intensity (ln)” value worked out at 7.2.

In the case of TGCTTATTTAGAATTGTGCACAGCGAATATTCTGTT, the “gcPBM binding intensity (ln)” value is 8.59.

Take “TTTTTTTTTTCAAATACATGCATTTATGTATAATAC [TGCATGCA_site722]”: the “gcPBM binding intensity (ln)” value came to 6.92.

For “TAGGAAAAAAATACAGTGCAATTTTTATATAAATAA [GTGCAC_site9979]”, the “gcPBM binding intensity (ln)” value is 7.86.

“TTTTTTTTTTTTTTGTGTACTAATATTATAAATTTT [XGTACX_site4405]”: the “gcPBM binding intensity (ln)” value was determined as 7.01.

Take “TTTATATAAATCAAATGTACATATTCCAAATATATA [XGTACX_site8515]”: the “gcPBM binding intensity (ln)” value was 7.01.

Regarding “TACATATTTTATAACTGTACTTTTTTATTATCCAAT [XGTACX_site5396]”, the “gcPBM binding intensity (ln)” value turned out to be 7.03.

Consider “TATATTATTTTTAGAAGTACTTATTGTTATAATTCT [XGTACX_site1015]”, for which the “gcPBM binding intensity (ln)” value turned out to be 6.85.

In the case of “AGAAAAGATAAAAATAGTACATATATATTTACTTAT [XGTACX_site7820]”, the “gcPBM binding intensity (ln)” value was found to be 6.76.

Regarding “CTCCTTTCAAAAAAATGTACATGTTTACATTTCAAG [XGTACX_site7342]”, the “gcPBM binding intensity (ln)” value stood at 7.1.

In the case of “TTATATATAATATGACGTACAATTATACATTTTATG [XGTACX_site7598]”, the “gcPBM binding intensity (ln)” value is 7.05.

With “ATAAATATTTATAACAGTACATATTTACTATCCTAA [XGTACX_site4497]”, the “gcPBM binding intensity (ln)” value was 6.75.

With “ACGATTAAATCGATAATACACACTAAATGTAAAACA [CACACA_site119]”, the “gcPBM binding intensity (ln)” value was 6.78.

For the sequence “TATACACATATTTTTACACACATATTTTTTCATATA [CACACA_site7244]”, the “gcPBM binding intensity (ln)” value is 7.

For “TATAAAAAAATATATATATATATTATATGTGTAGAA [TGCATGCA_negctrl_site391]”, the “gcPBM binding intensity (ln)” value is 7.32.

As for “ATTTATTTGAAGAATTGTACTAAATTATATAGCGGT [XGTACX_site4998]”, the “gcPBM binding intensity (ln)” value turned out to be 7.31.

Regarding “TATATCAAAATACATACACACATTTGTATTTACATT [CACACA_site5485]”, the “gcPBM binding intensity (ln)” value was 6.97.

Consider “ATTTTAATTTGTTATACACACACAAAAAAAATTATA [CACACA_site9306]”, for which the “gcPBM binding intensity (ln)” value amounted to 7.08.

Regarding “TTTTTTTTTAATCATGCACACTGTTAAAAGAATAAA [CACACA_site4817]”, the “gcPBM binding intensity (ln)” value is 8.57.

For the sequence “ACTGTCATTTATTGTAGTACGTCAATTTATTACATT [XGTACX_site2749]”, the “gcPBM binding intensity (ln)” value came to 7.33.

Consider “TGTTACAAAAAATAATGTACTTAATATATATATATA [XGTACX_site1016]”, for which the “gcPBM binding intensity (ln)” value is 8.7.

For “TATCTTCATTTTTTTGGTACGCACGCAAATATGGCT [XGTACX_site3107]”, the “gcPBM binding intensity (ln)” value is 7.32.

On to “TGAATATTCATGTGTGTGCGCATGTTGTTAGACCAT [GTGCAC_site9869]”, for which the “gcPBM binding intensity (ln)” value is 7.51.

For “TGTTTTCTTGATTATTGTACTTTAATTAGTAATATG [XGTACX_site8674]”, the “gcPBM binding intensity (ln)” value amounted to 7.12.

For “TAAATACATTTATGTACACACACATAGATGTATATT [CACACA_site5618]”, the “gcPBM binding intensity (ln)” value stood at 7.

For “AAAAATATTATAAGCACACATATATATATATATATA [CACACA_site2458]”, the “gcPBM binding intensity (ln)” value is 9.83.

As for “TATAATATGTTATATACACACATTATAAAATACACA [CACACA_site6742]”, the “gcPBM binding intensity (ln)” value stood at 7.2.

Take “TAATAATAAATAAAATGTACATATGAACAAATAAGT [XGTACX_site6710]”: the “gcPBM binding intensity (ln)” value was 7.85.

Consider “AAAAAAAAAATTAATTGTACTAAAAAAATATTATAT [XGTACX_site8903]”, for which the “gcPBM binding intensity (ln)” value was determined as 6.98.

“TATAAATTTTGTTTAGCACACACACCGACATACATA [CACACA_site9033]”: the “gcPBM binding intensity (ln)” value was 7.28.

On to “ATGTTGTACAGACACACACACAAAAAAAAAATAAAA [CACACA_site7184]”, for which the “gcPBM binding intensity (ln)” value came out at 7.31.

“ATATATATATATATATGTACATACATACAATCATAT [XGTACX_site6410]”: the “gcPBM binding intensity (ln)” value came out at 9.43.

As to “CTTACATATTACATATGTACATATACACCTTATGTC [XGTACX_site4679]”, the “gcPBM binding intensity (ln)” value stood at 7.14.

For the sequence “TATAATAGCTTCTTTACACACACCATTTTTTTTTTT [CACACA_site1456]”, the “gcPBM binding intensity (ln)” value is 6.89.

Consider “ATATATTTTTAATTTGCATGTAGTAAAGCCTTAAAT [TGCATGCA_site593]”, for which the “gcPBM binding intensity (ln)” value stood at 6.87.

For the sequence “CATCAAGTGAATTGTTGTACTTTACATTGTTTTTAT [XGTACX_site7261]”, the “gcPBM binding intensity (ln)” value was 6.97.

With “TTTAATTTTTATATAACACACATATTGGAATTATGT [CACACA_site734]”, the “gcPBM binding intensity (ln)” value worked out at 6.89.

With “TTAAATGTGAAGTGAATACACACCTAATAAATATAA [CACACA_site3194]”, the “gcPBM binding intensity (ln)” value was found to be 6.73.

Consider “TTATGTATTACCTGCCGTACTTCTAAAATAATTAAA [XGTACX_site1716]”, for which the “gcPBM binding intensity (ln)” value was determined as 7.49.

For the sequence “ATATATTTACTTAATACACACAAAAAAAAAAAAAAA [CACACA_site3657]”, the “gcPBM binding intensity (ln)” value came out at 7.03.

Take “TAAAAAAGTTATATTACACACTTTATTGGTTAACTT [CACACA_site653]”: the “gcPBM binding intensity (ln)” value is 6.53.
